Experimental data published in PubChem BioAssay AID651820 (National Center for Advancing Translational Sciences (NCATS), 2012).
Out of some 340,000 compounds screened, about 12,000 (3.5%) were called active. This list was built around the results that the source calls inconclusive (neither active nor inactive); the mix of calls is not that of the screen. Calls follow the shape of the dose curve; as a rule, active = well fitted inhibition curve with a large enough effect; inconclusive = small, poorly fitted or top-dose-only effect, or another doubt; inactive = no such curve, though single readings can be large or run the other way. Potencies of inconclusive entries are left out as doubtful fits.

experiment: qHTS Assay for Inhibitors of Hepatitis C Virus (HCV); settings: Huh7.5.1 HCVcc-Cre (HCVcc is cell-culture hepatitis C virus) infection, luciferase reporter, 44 h; series mostly up to 41.8 µM
Procedure, shortened: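 HCVcc-Cre virus at an moi near 0.5 was added right after compound to cells cultured 4 h from seeding (1,000 cells/well). Luciferase activity was determined 44 h later, 15 min after substrate addition at RT.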
Potency is read from the fitted curve at half-maximal effect; tags tell the direction and shape of the fitted curve.

| Structure (SMILES) | Potency |
| --- | --- |
| CCN(CC)c1ccc2cc(-c3nc4ccccc4[nH]3)c(=O)oc2c1 | inconclusive [inhibitor, partial curve] |
| Cc1ccc(C2CC(c3ccccc3)=NN2C(=S)Nc2ccccc2)o1 (centres undefined) | inconclusive [inhibitor, full curve] |
| CC1CC(C)CN(CCCNS(=O)(=O)c2ccc3c(c2)CCN3C(=O)C2CC2)C1 (centres undefined) | inconclusive [inhibitor, single point] |
| CC(=O)c1cc2c(cc1NC(=O)CCn1cnnn1)OCO2 | inconclusive [inhibitor, single point] |
| CCOC(=O)CSc1nc2c(sc(=S)n2-c2ccccc2OC)c(=O)n1-c1ccccc1OC | inconclusive [inhibitor, single point] |
| O=C(CSc1n[nH]c(-c2ccncc2)n1)Nc1ccc(F)cc1 | inactive |
| CS(=O)(=O)c1ccc2nc(NC(=O)CCS(=O)(=O)c3ccccc3)sc2c1 | inconclusive [inhibitor, single point] |
| COc1ccc(/C=N/n2c(SC)nnc(C(C)(C)C)c2=O)cc1OC | inactive |
| O=C(Nc1ccccc1)c1nc2ccccc2s1 | inactive |
| O=C(/C=C/c1ccccc1[N+](=O)[O-])N1CCc2ccccc2C1 | inactive |
| C/C=C(/C)C(=O)O[C@@H]1c2c(ccc3ccc(=O)oc23)OC(C)(C)[C@@H]1OC(=O)/C(C)=C\C | active: 22.4 µM |
| COc1ccc([N+](=O)[O-])cc1NC(=O)c1ccc(N(Cc2ccccc2Cl)S(C)(=O)=O)cc1 | inconclusive [inhibitor, partial curve] |
| Cc1ccccc1CN1CCc2c(OCC(=O)N3CCCc4ccccc43)cccc2C1=O | active: 12.6 µM |
| CCOc1cc(C(=O)N2CCN(c3ccc(C(C)=O)cc3)CC2)cc(OCC)c1OCC | inconclusive [inhibitor, full curve] |
| O=C(NCCc1ccccc1)c1cccc(N2C(=O)C3CC=CCC3C2=O)c1 (centres undefined) | inactive |
| CCOC(=O)Cn1nc(NC(=O)c2ccc(C(=O)OC)cc2)cc1C | inconclusive [inhibitor, partial curve, poor fit] |
| O=C(NCCCn1ccnc1)Nc1ccc(Cl)cc1Cl | inconclusive [inhibitor, single point] |
| COc1ccccc1N(C)S(=O)(=O)c1ccc(C(=O)NC(C)(C)C)cc1 | inactive |
| COC(=O)c1ccccc1NC(=O)CSc1nc(-c2ccco2)cc(C(F)(F)F)n1 | inconclusive [inhibitor, full curve, poor fit] |
| COC(=O)C1=C(C)N(c2ccc(Br)cc2)C(=O)/C1=C\c1ccco1 | inconclusive [inhibitor, partial curve] |
| COc1ccc(C)cc1-n1[nH]nnc1=S | inactive |
| Cc1ccc2cc(CN(CCN(C)C)C(=O)Nc3ccc(Cl)cc3)c(=O)[nH]c2c1 | active: 6.31 µM |
| CCC(C)NCC(=O)Nc1sc2c(c1C(N)=O)CCC2 (centres undefined) | inconclusive [inhibitor, single point] |

| Structure (SMILES) | Potency |
| --- | --- |
| Cc1ccc(Oc2ccc(OCC(=O)NC(CC(C)C)C(=O)O)cc2)cc1 (centres undefined) | inactive |
| CC(C)(C)c1ccc(-n2ncc3c2CCCC3NC(=O)c2ccncc2)cc1 (centres undefined) | inconclusive [inhibitor, full curve] |
| O=C(Nc1ccncc1)c1cc(S(=O)(=O)N2CCCC2)ccc1Cl | inconclusive [inhibitor, single point] |
| CC1(C)CC2CC(C)(CN2S(=O)(=O)c2ccc(C(=O)Nc3cccc(S(=O)(=O)N4CCOCC4)c3)cc2)C1 (centres undefined) | active: 11.2 µM |
| COc1ccc(N2CCN(C(=O)c3ccc(Oc4ccc(C(F)(F)F)cn4)cc3)CC2)cc1 | inconclusive [inhibitor, full curve] |
| Cn1c(Oc2ccccc2NCc2cc(Br)ccc2O)cc(=O)n(C)c1=O | inconclusive [inhibitor, single point] |
| COc1ccc(-c2noc(=O)n2Cc2ccccc2Cl)cc1 | inactive |
| Cn1c(C(=O)Nc2ccc3c(c2)OCCO3)cc2c(=O)n(C)c3ccccc3c21 | inconclusive [inhibitor, single point] |
| O=C(Nc1nccs1)c1ncc(Cl)c(Cl)c1Cl | inactive |
| c1ccc(-c2nnc(CN3CCN(c4ccccc4)CC3)o2)cc1 | inactive |
| CCCN1CCN(C(=O)c2oc3ccccc3c2NC(=O)COc2ccc(OC)cc2)CC1 | inconclusive [inhibitor, single point] |
| COc1ccc(-c2nc(C(=O)NCCCN3CCOCC3)cc3c2[nH]c2ccccc23)cc1OC | active: 12.6 µM |
| COc1cc(Br)c(C(C)NC(=O)c2cccc(Br)c2)cc1OC (centres undefined) | inconclusive [inhibitor, single point] |
| C#CCNC(=O)C1=C[C@H](c2ccc(C(F)(F)F)cc2)C[C@H](OCCCCO)O1 | inconclusive [inhibitor, partial curve] |
| Cc1ccc(CS(=O)(=O)c2ncc(Cl)c(C(=O)Nc3nnc(C)s3)n2)cc1 | inconclusive [inhibitor, single point] |
| COc1ccc(NC(=O)ON=C2c3ccccc3-c3ccccc32)cc1 | inconclusive [inhibitor, partial curve] |
| O=C(CSC1=NS(=O)(=O)c2cc(Cl)ccc2N1)c1ccc(Cl)cc1 | inactive |
| COC(=O)c1ccc(CSC2=NC[C@@H]3[C@@H]4C(=O)N(C)C(=O)[C@@H]4[C@](Cc4ccccc4)(C(=O)OC)N23)cc1 | inconclusive [inhibitor, partial curve, poor fit] |
| CN(C)S(=O)(=O)c1ccc(S(=O)(=O)N2CCCC(C(=O)NC3CC3)C2)cc1 (centres undefined) | inconclusive [inhibitor, full curve] |
| Cc1c2cnn(-c3ccccc3)c(=O)c2c(C)n1CCCC(=O)N1CCN(c2ncccn2)CC1 | inconclusive [inhibitor, full curve, poor fit] |
| O=C(/C=C/c1ccc([N+](=O)[O-])cc1)Nc1cccc(S(=O)(=O)NC2=NCCCCC2)c1 | active: 25.1 µM |
| COc1ccc(N(CC(=O)N2CCc3ccccc32)S(=O)(=O)c2c(C)n[nH]c2C)cc1 | inconclusive [inhibitor, partial curve] |
| CCOc1ccc(C2=Nc3ccccc3C(c3ccc(N4CCOCC4)cc3)=NN2)cc1 | inconclusive [inhibitor, partial curve] |

| Structure (SMILES) | Potency |
| --- | --- |
| Cc1cccc(Nc2nc(-c3ccc(F)cc3)cs2)n1 | inconclusive [inhibitor, partial curve] |
| CCOc1ccc(C(=O)Nc2ccc3c(c2)OCCO3)cc1OC | inconclusive [inhibitor, full curve] |
| O=C(COc1ccc(Cl)cc1)NCc1nnc(SCC(=O)N2CCCC2)o1 | inactive |
| C=Cn1cc[n+](CC(=O)c2cc(C(C)(C)C)c(O)c(C(C)(C)C)c2)c1 | inconclusive [inhibitor, single point] |
| CC1CC(C)CN(S(=O)(=O)c2ccc(NC(=O)[C@@H]3CCCN3C(=O)c3cccs3)cc2)C1 (some centres undefined) | inconclusive [inhibitor, partial curve] |
| Cc1ccc(-c2[nH]c(-c3ccccc3)nc2SCC(=O)NCC2CCCO2)cc1 (centres undefined) | inconclusive [inhibitor, single point] |
| CSCCC1NC(=O)N(CC(=O)Nc2ccc3c(c2)OCCO3)C1=O (centres undefined) | inactive |
| COCCOC(=O)C1=C(C)NC2=C(C(=O)CC(c3cccs3)C2)C1c1ccsc1 (centres undefined) | inactive |
| CCn1ccnc1CNC(=O)c1ccc2oc(C(C)C)nc2c1 | inactive |
| Cc1onc(-c2ccccc2)c1C(=O)OCC(=O)Nc1ccc(C#N)cc1 | inconclusive [inhibitor, partial curve] |
| O=C(NC(Cc1c[nH]c2ccccc12)C(=O)O)/C(=C\c1ccccc1)NC(=O)c1ccccc1 (centres undefined) | inactive |
| Cn1sc(NC(=O)c2ccc(Cl)cc2)nc1=O | inactive |
| O=[N+]([O-])c1cc([N+](=O)[O-])c2cccnc2c1Oc1ccccc1O | inconclusive [inhibitor, partial curve] |
| CCOC(=O)C(NC(=O)CC)(Nc1sc(C)c(CC)c1C#N)C(F)(F)F (centres undefined) | inactive |
| O=C(O)c1ccc(N/N=C/c2ccc(-c3ccccc3)cc2)cc1 | inconclusive [inhibitor, single point] |
| O=C(Nc1ccc(Cc2ccncc2)cc1)C1CCC(N2C(=O)C3C4C=CC(C5CC45)C3C2=O)CC1 (centres undefined) | active: 8.91 µM |
| C/C(=N\NC(=O)CSCc1ccccc1Br)c1cccc([N+](=O)[O-])c1 | inconclusive [inhibitor, single point] |
| CCCCOC(=O)c1ccc(NC(=O)c2cnc3n(c2=O)CCS3)cc1 | inconclusive [inhibitor, partial curve] |
| COc1ccc(CCNC(=O)c2ccccc2NC(=O)CN2CCN(c3ccccc3O)CC2)cc1 | inconclusive [inhibitor, single point] |
| Cc1ccc2nc(-c3ccc(N)cc3)sc2c1 | inconclusive [inhibitor, single point] |
| Cn1nc(C(=O)Nc2ccccc2N2CCCC2)c2ccccc2c1=O | active: 11.2 µM |
| Clc1cccc2c3c([nH]c12)CCNC3 | inconclusive [inhibitor, single point] |
| Cc1ccccc1/C=C/c1cccc[n+]1C | active: 6.31 µM |
